Measurements as given in PubChem BioAssay AID686979 (National Center for Advancing Translational Sciences (NCATS), 2013).
The campaign covered roughly 420,000 compounds. About 50,000 (12%) were called active. This list was built around the results that the source calls inconclusive (neither active nor inactive); the mix of calls is not that of the screen. Calls come from the whole dose curve; as a rule, active = well fitted inhibition curve with a large enough effect; inconclusive = small, poorly fitted or top-dose-only effect; inactive = flat fitted curve, though single readings scatter. Potencies of inconclusive entries are left out as doubtful fits.

Experiment: qHTS for Inhibitors of human tyrosyl-DNA phosphodiesterase 1 (TDP1): qHTS in cells in presence of CPT; note: nearly all actives have a fitted effect of over 55% in size
Conditions: chicken DT40 Tdp1-/-;hTDP1 cells + 20 nM CPT, ATP luminescence, 48 h; activity change, negative = growth inhibition: at 46.2 µM (top of the series)
In short: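 Cell growth measured by CellTiter-Glo luminescence after a minimum 48 h, 37 C compound exposure with 20 nM CPT in Tdp1-knockout DT40 cells stably expressing hTDP1, seeded 400/well; qHTS titration format.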
% is set by controls: 0 for no effect and ±100 for the full control effect; potency is the fitted concentration of half-maximal effect; tags give direction and shape of the fitted curve.

Which Potency does the source give for `NC(=O)/C(=C\c1cccnc1)NC(=O)c1ccccc1` here?
The Potency was “inactive”.

For `CC(=O)c1c(C)nc2ccc([N+](=O)[O-])cc2c1-c1ccccc1`, which Potency is on record?
The Potency was inconclusive [inhibitor, single point].

With `CC(=O)N1CCc2cc3nc(C)cc(C)c3cc21` as the molecule, how does the Potency read?
The Potency was “inactive”.

For `CSc1ccc(/C=C2/C(C)=C(CC(=O)O)c3cc(F)ccc32)cc1`, which Potency is on record?
Its Potency is “inactive”.

With `Cc1ccc(NC(=O)c2sc(-n3nc(C)c(Cc4ccc5c(c4)OCO5)c3C)nc2C)cc1C` as the molecule, how does the Potency read?
Its Potency is inconclusive [inhibitor, single point].

For `CCCOc1ccc(C2c3c(oc4cc(C)c(C)cc4c3=O)C(=O)N2CCCN2CCOCC2)cc1` (stereo not given), which Potency is on record?
The Potency was “inactive”.

Which Potency does the source give for `Cn1cccc1C(=O)NCC(c1ccco1)N1CCCCC1` (stereo not given) here?
Its Potency is “inactive”.

For `Cc1cc(C)cc(NC(=O)CSCc2cc(=O)c3ccc(C)c(C)c3[nH]2)c1`, which Potency is on record?
Its Potency is “inactive”.

For `Clc1ccc(OC2CCN(Cc3nc(CC4CC4)no3)CC2)cc1`, which Potency is on record?
Its Potency is inconclusive [inhibitor, single point].

With `CSc1ccc(NC(=O)NCc2ccccc2)cc1` as the molecule, how does the Potency read?
The Potency was “inactive”.

For `CCC(C(=O)N1CCN(Cc2ccc3c(c2)OCO3)CC1)n1nnc2ccccc2c1=O` (stereo not given), which Potency is on record?
Its Potency is inconclusive [inhibitor, single point].

For `Cc1cccc(-n2ncc3c(NCc4ccccc4)ncnc32)c1`, which Potency is on record?
Its Potency is active: 4.61 µM.

With `O=C(CS(=O)(=O)c1cn(CC(=O)N2CCOCC2)c2ccccc12)Nc1ccccc1F` as the molecule, how does the Potency read?
Its Potency is “inactive”.

For `Cc1cc(C)c(NC(=O)C2CCN(C(=O)c3ccco3)CC2)c(C)c1`, which Potency is on record?
The Potency was “inactive”.

With `O=C(CCCn1c(=O)c2sccc2n(Cc2cccc(Cl)c2)c1=O)NCc1ccc2c(c1)OCO2` as the molecule, how does the Potency read?
The Potency was inconclusive [inhibitor, partial curve].

With `CC(NC(=O)CC1SC(N)=NC1=O)c1ccccc1` (stereo not given) as the molecule, how does the Potency read?
The Potency was “inactive”.

For `COC(=O)[C@@H]1CCCN1Cc1ccc2c(c1)CN(Cc1ccc3c(c1)CCCN3C)CCO2`, which Potency is on record?
Its Potency is “inactive”.

For `CC(=O)N1c2ccc(S(=O)(=O)N3CCC(C(=O)Nc4ccc(C)cn4)CC3)cc2CC1C` (stereo not given), which Potency is on record?
The Potency was inconclusive [inhibitor, single point].

For `Cc1cc(N/N=C/c2ccccc2Cl)nc(NCc2ccccc2)n1`, which Potency is on record?
The Potency was active: 4.61 µM.

Which Potency does the source give for `Cc1ccc(NC(=O)N2CCC(NC(=O)c3cccc(F)c3)CC2)cc1` here?
Its Potency is “inactive”.

For `O=C(COC(=O)c1ccccc1[N+](=O)[O-])Nc1cc(S(=O)(=O)N2CCOCC2)ccc1N1CCCC1`, which Potency is on record?
The Potency was “inactive”.

With `CCOc1ccccc1N1CCN(C(=O)NCc2ccc(Cl)cc2)CC1` as the molecule, how does the Potency read?
Its Potency is “inactive”.

With `COc1ccc(NC(=O)c2cccc3c2C(=O)c2ccc(-c4cnc(OC)nc4)cc2S3(=O)=O)cc1` as the molecule, how does the Potency read?
Its Potency is “inactive”.

For `Cc1ccc(C(=O)c2c(NC(=O)CSc3nnc(N)s3)sc3c2CCCC3)cc1`, which Potency is on record?
The Potency was inconclusive [inhibitor, single point].

Which Potency does the source give for `CCOc1ccc(OCCSc2nc(-c3ccccc3)cc(=O)[nH]2)cc1` here?
The Potency was “inactive”.

With `COc1ccc(S(=O)(=O)N(C(C)=O)c2ccc(OC(C)=O)c3ccccc23)cc1[N+](=O)[O-]` as the molecule, how does the Potency read?
Its Potency is active: 3.26 µM.

Which Potency does the source give for `Cc1occc1C(=O)Nc1nnc(C(F)(F)F)s1` here?
The Potency was “inactive”.

With `Cc1ccc(C)c(N2CCN(C(=O)c3ccc4nc(N5CCOCC5)sc4c3)CC2)c1` as the molecule, how does the Potency read?
The Potency was inconclusive [inhibitor, single point].

With `C=CCC[C@H](Cc1ccc(F)cc1)C(=O)OC[C@H](Cc1c[nH]c2ccccc12)NC(=O)[C@@H](CC=C)CC(=O)N[C@@H](CO)Cc1ccccc1` as the molecule, how does the Potency read?
Its Potency is active: 5.8 µM.

Which Potency does the source give for `NC(=O)c1ccc(C(F)(F)F)n(Cc2ccccc2Cl)c1=O` here?
Its Potency is inconclusive [inhibitor, partial curve].

For `COc1ccc(-c2csc(N(CC3CCCO3)C(=O)c3cccs3)n2)cc1` (stereo not given), which Potency is on record?
The Potency was active: 11.6 µM.

For `O=C(CNC(=O)Cc1ccccc1)NCC(=O)OCC(=O)c1ccc(Cl)cc1`, which Potency is on record?
The Potency was “inactive”.

With `O=C(CCN1C(=O)/C(=C/c2ccccc2)SC1=S)NCCc1ccc(O)cc1` as the molecule, how does the Potency read?
The Potency was active: 16.4 µM.

For `O=C(Cn1nnc(-c2ccccc2NC(=O)c2ccccc2)n1)Nc1ccc2c(c1)OCCO2`, which Potency is on record?
The Potency was inconclusive [inhibitor, single point].

Which Potency does the source give for `COc1ccccc1N1CCN(C(=O)c2cc3cc(C)ccc3[nH]2)CC1` here?
The Potency was inconclusive [inhibitor, single point].

Which Potency does the source give for `Cn1cc(C=CC(=O)O)c2nccnc21` here?
The Potency was “inactive”.

With `NS(=O)(=O)c1ccc(CCNC(=O)c2cc(=O)[nH]c3ccccc23)cc1` as the molecule, how does the Potency read?
Its Potency is “inactive”.

For `O=C(CCCN1C(=O)/C(=C\c2ccccc2)SC1=S)Nc1ccc(C(=O)O)cc1`, which Potency is on record?
The Potency was “inactive”.

For `O=[N+]([O-])c1ccccc1-c1ccc(C(=S)N2CCN(c3ccccc3)CC2)o1`, which Potency is on record?
The Potency was inconclusive [inhibitor, single point].

With `O=C(O)CCSc1nnc(CNc2ccc(Cl)cc2)n1Cc1ccccc1` as the molecule, how does the Potency read?
The Potency was “inactive”.

Which Potency does the source give for `Cc1ccc2c(c1)[C@H]1[C@H](CO2)[C@H](c2ccccc2)[C@]2(C)C(=O)Nc3cc(Cl)ccc3C(=O)N12` here?
Its Potency is inconclusive [inhibitor, single point].

For `COCCOC(=O)c1sc2nc[nH]c(=O)c2c1C`, which Potency is on record?
The Potency was “inactive”.

With `CC(C)(C)c1cc(C(=O)NNS(=O)(=O)c2ccccc2)n[nH]1` as the molecule, how does the activity change, negative = growth inhibition read?
Its activity change, negative = growth inhibition is inconclusive: -32.5% [inhibitor].

With `CCC(C)(C)c1ccc(CC(C)CN2C[C@@H](C)O[C@@H](C)C2)cc1` (stereo not given in full) as the molecule, how does the Potency read?
Its Potency is inconclusive [inhibitor, single point].

With `CCC(=O)NC(=S)NNC(=O)c1ccc([N+](=O)[O-])cc1` as the molecule, how does the Potency read?
Its Potency is inconclusive [inhibitor, single point].

Which Potency does the source give for `Cc1nc2ccccc2c(=O)n1/N=C/c1cn[nH]c1-c1ccccc1` here?
The Potency was inconclusive [inhibitor, single point].

With `CCn1c(=S)[nH]c2nc3c(cc2c1=O)CCCC3` as the molecule, how does the activity change, negative = growth inhibition read?
The activity change, negative = growth inhibition was inconclusive: -34.2% [inhibitor].

Which Potency does the source give for `CCCCn1nnnc1C1(C)CCC(=O)N1CCOC` (stereo not given) here?
Its Potency is “inactive”.

Which Potency does the source give for `NC(=O)C1CCN(C(=O)Cn2c(-c3cccs3)cc3ccccc32)CC1` here?
Its Potency is “inactive”.

With `COc1ccccc1CNC(=O)c1ccccc1N(C)S(C)(=O)=O` as the molecule, how does the Potency read?
Its Potency is inconclusive [inhibitor, full curve].
